Here are results for 23 molecules from ChEMBL document CHEMBL4888484, “Replenishing the malaria drug discovery pipeline: Screening and hit evaluation of the MMV Hit Generation Library 1 (HGL1) against asexual blood stage Plasmodium falciparum ,using a nano luciferase reporter read-out” (2022).

The % Inhibition is the change of the read-out against control, counted positive when it falls.

Hit rate of the full screen: of about 150,000 compounds, about 540 (0.36%) showed an effect of 50% or more. Some of the results follow.

The test concerns Plasmodium falciparum. The test can be described thus: Primary screen in NF54 nanoGlo assay, in single point, at 2uM, 72h; a lower Z score goes with more inhibition. Conditions: timepoint 72 hour. The test is classed as functional, Erythrocyte.
Regarding `CC1CC(C(=O)N2CCC(C3CCOC3)C2)CC(=O)N1` (stereo unspecified), the “% Inhibition” value is listed as -6% and the Z score is listed as 0.58.

Regarding `O=S(=O)(Nc1ccccc1-n1cncn1)c1ccc2c(c1)CCCC2`, the “% Inhibition” value is listed as -1% and the Z score was 0.17.

As for `CCCS(=O)(=O)N1CCCC[C@H]1C(=O)Nc1cnc2ccccc2c1`, the “% Inhibition” value was -13% and the Z score stood at 1.26.

In the case of `Cc1onc(-c2ccccc2)c1C(=O)N1CC(C)OC(C)C1` (stereo unspecified), the “% Inhibition” value is -19% and the Z score was found to be 2.49.

Turning to `Cc1noc([C@H](C)NC(=O)c2cn(C)nc2-c2ccco2)n1`, the “% Inhibition” value worked out at 1% and the Z score is -0.12.

In the case of `Cc1ccc(Cn2nc(-c3ccc(C(N)=O)cc3)nc2[C@@H]2COCCO2)cc1`, the “% Inhibition” value was -5% and the Z score is listed as 1.02.

Take `CCn1nnc2ccc(-c3noc(Cc4ccc(F)cc4)n3)cc21`: the “% Inhibition” value is on record as -8% and the Z score worked out at 1.37.

As for `C[C@@H](CNC(=O)C1CCC(Cn2c(=O)[nH]c3ccsc3c2=O)CC1)c1ccccc1` (stereo partly specified), the “% Inhibition” value is -15% and the Z score stood at 1.29.

As for `CC(C)C(C(=O)NCC1COCCO1)n1cnc2cc(F)c(F)cc21` (stereo unspecified), the “% Inhibition” value came to 11% and the Z score is -1.6.

Turning to `CC(CCc1cccc(F)c1)NC(=O)N1CCCC(CC(N)=O)C1` (stereo unspecified), the “% Inhibition” value was determined as 10% and the Z score is -1.23.

For `CCN1CCN(C[C@@H]2CN(Cc3[nH]c4ccc(C)cc4c3C)C[C@@H]2CO)CC1`, the “% Inhibition” value is 5% and the Z score was -0.76.

In the case of `Cc1ccc(C)c(CC(=O)N2C[C@@H]3CC[C@H]2CN(S(=O)(=O)N(C)C)C3)c1`, the “% Inhibition” value was -6% and the Z score is 0.89.

Regarding `CCn1c(C)c(-c2nc(C3CC3)no2)c(S(=O)(=O)Nc2ccc(OC)cc2)c1C`, the “% Inhibition” value is -9% and the Z score worked out at 1.85.

For `Cn1cnnc1C[C@H]1CCN(S(=O)(=O)Cc2ccccc2)C1`, the “% Inhibition” value was -3% and the Z score was determined as 0.42.

Regarding `CCn1ccc(C(=O)NC2CCN(C3=NS(=O)(=O)C(c4ccccc4)=C3C)CC2)n1`, the “% Inhibition” value came to 1% and the Z score was -0.11.

For `COc1ccc(C(=O)NCc2cccc(Cl)c2)cc1CN1CC(=O)N2CCC[C@H]2C1=O`, the “% Inhibition” value was -13% and the Z score amounted to 2.37.

With `CCn1cc(CNC[C@H](C)c2nc3ccccc3o2)cn1`, the “% Inhibition” value was -7% and the Z score came out at 0.77.

For the molecule `C1CCN(CCN2CCOC[C@@]23CCOC3)CC1`, the “% Inhibition” value amounted to 9% and the Z score is -1.7.

In the case of `CCC(CC)(C(=O)O)C(=O)N1CCCC(C(C)N)C1` (stereo unspecified), the “% Inhibition” value is listed as -5% and the Z score came out at 0.83.

For `C[n+]1cc(-c2ccc3ccccc3n2)c(C#N)c2ccccc21`, the “% Inhibition” value was 34% and the Z score is -4.97.

With `CC(C)N(C)Cc1nc(C2CN3CCCCC3CO2)no1` (stereo unspecified), the “% Inhibition” value is recorded as -14% and the Z score is listed as 1.57.

Take `COc1cccc(NC(=O)[C@@H](C#N)C(=O)c2ccc(C)o2)c1`: the “% Inhibition” value was determined as 6% and the Z score was -0.8.

Regarding `COc1ccc(N2C(=O)N[C@@H](CC(=O)NC(c3ccc(OC)c(OC)c3)C(C)C)C2=O)cc1` (stereo partly specified), the “% Inhibition” value was determined as 7% and the Z score was -1.07.
